From publication doi:10.1101/2021.08.18.456755 (bioRxiv, 2021)

Molecular target: Hs-Ubc9 (human E2 conjugating enzyme Ubc9), untagged (human, UniProt P63279)
Assay: ITC

Chain of UniProt P63279 (P63279 whole entry): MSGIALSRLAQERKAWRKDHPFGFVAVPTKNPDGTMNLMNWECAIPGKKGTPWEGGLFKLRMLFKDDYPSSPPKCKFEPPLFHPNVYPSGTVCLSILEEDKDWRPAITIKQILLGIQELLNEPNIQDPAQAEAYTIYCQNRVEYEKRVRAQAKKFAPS

B1: Hs-SUMO1 (human SUMO1), untagged (natural protein)
chain: not shown
Q: How did the Kd turn out when B1 was run?
A: 4.18 ± 0.2 µM
